From the supplement of paper PMC11417369
± gives the standard deviation of the averaged measurements. This is one part of the list.

Tested on: PfAP2-I AP2 domain 3 (GST-tagged)
Assay: gcPBM binding intensity (ln(normalized median fluorescence intensity)); higher = stronger DNA binding
How it was run: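 Alexa488 anti-GST antibody, scanned at 488 nm, detected GST-tagged P. falciparum DNA-binding domains that had been expressed in E. coli and incubated for 1 h on an Agilent 4 × 180k array. The array carried primer-extended double-stranded 36-bp intergenic genomic probes and negative controls. Binding intensity is the highest Masliner-normalised natural-log median intensity across replicate spots of either orientation of each probe.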

Sequence	gcPBM binding intensity (ln)
TATAAACATAAATATACACACAAACATCTATGTATT [CACACA_site4804]	7.67 ± 0.23
AAAAAAAAATATCACACACACATAAATATAAACCAA [CACACA_site2279]	7.84 ± 0.54
AGGCACTTATAATAATGTACATAAATAAAAAGAAAA [XGTACX_site6037]	7.89 ± 0.54
TAAAACATCAAGGGGTGTACAAAAAAGATGAACAGG [XGTACX_site6929]	8.48 ± 0.67
AAAAAAAAAAAAACTACACACATAAAATATATTGTG [CACACA_site805]	7.72 ± 0.52
ATTGGGTTCATCAGCACACACAACATCATGTAATAA [CACACA_site5093]	7.96 ± 0.54
AGAGCATAATAAAACACACACATACATACATATATA [CACACA_site935]	7.91 ± 0.28
TATGTAAAAACAGGCACACATATATCATATATATAT [CACACA_site619]	9.055 ± 0.007
TATGTATGCCTGTTTTGTACTTAAGAAAATGTTGCT [XGTACX_site8443]	7.72 ± 0.51
AAAAAAAAAAAAAAAAGTACATAATATAAAATCTAA [XGTACX_site6019]	8.53 ± 0.52
CATTATGTACAAAAAGTGCAATATATATTAACACTG	11 ± 0.43
TTATATATATATATATATATATATATATATATAAAT [GTGCAC_negctrl_site126]	8.41 ± 0.23
AACAAAATAAGAAAACGTACAAATGTTTCAAATTCT [XGTACX_site1544]	7.62 ± 0.71
TTTTCAAAGATATATACACACATGCATATTACGGTG [CACACA_site6505]	8.24 ± 0.47
TTAATAAATATCAATACACACACACTAATGTGAATA [CACACA_site9254]	7.52 ± 0.27
TTTTTGAGTGCACATACACACAGACATACATTTAAA [CACACA_site5813]	10.8 ± 0.65
TTCAATATACATATGTGTACTAAAATAAATAGAAAA [XGTACX_site5708]	8.15 ± 0.42
ATTACAACATTTTATACACACGTGATTATTAATTTT [CACACA_site5581]	7.86 ± 0.58
GGATTCAAAAAAAAAAATAAAAGTAAATAATAAATA [TGCATGCA_negctrl_site348]	7.25 ± 0.56
TAAATATATTTATACACACACACCAAAGCAATAGAT [CACACA_site7393]	8.29 ± 0.42
TATATTTCAGGGGGGAGTACAAATTTTTTTATATAA [XGTACX_site1600]	11 ± 0.52
TTTATGAAGTAAAAATATAAATTCACAAAGTTAAAA [CACACA_negctrl_site1476]	7.49 ± 0.65
AAGAACAGAACGTACACACACATATTTATATTTATA [CACACA_site7594]	8.22 ± 0.21

Sequence	gcPBM binding intensity (ln)
TAAGGAAAAAAAATATGTACTTATAGTTCCTTCTTT [XGTACX_site2202]	7.63 ± 0.45
ATTTGTAATATTAAATGTACAGGTAAGAAATATCAG [XGTACX_site1562]	8.22 ± 0.18
TTAATATATATATATATATATATATTTTTATTTTTT [CACACA_negctrl_site763]	7.78 ± 0.26
TGTATTAACAAAAAGGTGCGGATATATATAAAAAAT [GTGCAC_site9473]	9.59 ± 0.13
AAAATGTTATTGGAAAGTACAAAAAAAATTATATAA [XGTACX_site4074]	7.76 ± 0.51
CATATATAGATATATACACACATATATAAATAAATA [CACACA_site6759]	7.6 ± 0.45
ATAAAACGTACAATGGTGCATATAAATAATATATAT [GTGCAC_site9960]	11 ± 0.52
TATGTATATTCTTTCAGTACACATAATGTTGTCATA [XGTACX_site8845]	7.85 ± 0.45
CATTAATATATATATACATGCACGTTTTAAAAAAAA [TGCATGCA_site875]	9.1 ± 0.52
ATGGGAATATAATTATGTACATATAAAAATTATAAA [XGTACX_site5336]	7.75 ± 0.38
TAATTATGCAGACACACACACACACGCAACTAAAAA [CACACA_site7253]	8.31 ± 0.47
AAAAAATATTTTTACAGTACATATATATAAAATGTT [XGTACX_site3215]	7.79 ± 0.38
TCATTTCACGGACACACACACACAATATATTTCCTT [CACACA_site6023]	8.38 ± 0.63
TAACAAAGGAAAGATATACACACGTATGCATGATAA [CACACA_site2520]	7.87 ± 0.83
TTTTTTTTTTAATTCGCACACTGTCTTCATACAATT [CACACA_site1379]	8.62 ± 0.65
ATATATATATATTTATGTACTTAATAATTTATTCAC [XGTACX_site7301]	9.15 ± 0.085
TGCAGTCTGGAGAAAAGTACATAGTATCTGGTAACC [XGTACX_site2019]	7.88 ± 0.57
TTTTTATTACATAATTAAAAAAAATAATAAAATAAA [XGTACX_negctrl_site249]	7.33 ± 0.25
TAAAAAATATAAACTGCACACACAAAAAAAAAAGAG [CACACA_site8379]	9.3 ± 0.042
AATTTAAAATAATATTGTACTTAGATATAAATATGA [XGTACX_site4198]	7.54 ± 0.18
TAATATCTAAAAAATATATTTTTTATTTTTTATTAA [CACACA_negctrl_site510]	7.38 ± 0.6
ATATCATTAAAAGGATGTACATATGTGTATACAATA [XGTACX_site871]	8.26 ± 0.56
TACATACATACATACACACACACATATATATACATA [CACACA_site853]	8.88 ± 0.67

Sequence	gcPBM binding intensity (ln)
ATGGTACACAAATATACATGCAATAATAAAAAAAAA [TGCATGCA_site879]	8.11 ± 0.68
CACACCCACCAACACACACACACACCCACCCATATA [CACACA_site366]	8.03 ± 0.37
TTATAAATGAATAAATGTACAAAATATATATATATA [XGTACX_site8829]	9.39 ± 0.17
CATAACATAAAATAGGTGCACAAAAATTGTAATTGA	11.37 ± 0.021
TTCAGTGTATACATATGTACATATATATATATATAT [XGTACX_site1621]	9.18 ± 0.24
ATTTTTATTTGTTACGCATGCATAAAAGTGCATACT [TGCATGCA_site547]	9.44 ± 0.93
TTGTAATATATGTATTGTACGCATATAACAATTATT [XGTACX_site3652]	7.92 ± 0.13
AAAATACATAAATGTTCACACATTAAAAAGCAGAAG [CACACA_site5346]	7.85 ± 0.62
TATGTCAGATGAAAGGGTACATAATATAATATATTT [XGTACX_site8062]	7.76 ± 0.47
TTTATAAAGAAACACACACACATGTGAACATAAAAA [CACACA_site1908]	7.92 ± 0.85
TGTATGAAATATATTACACACATATATAATATATAT [CACACA_site793]	7.79 ± 0.42
GTGTAAATAAGGATATATAACAATCAACAAAACATA [CACACA_negctrl_site1759]	7.9 ± 0.54
ATACACAAAATTATTAAATCAATAAATATATGGTTT [CACACA_negctrl_site353]	7.44 ± 0.48
ATATTTTTCAAACATCGTACATTATGAGTTAAAATT [XGTACX_site584]	7.71 ± 0.47
TATATTTTCTATAGGTGTACTCCACATGCGGTGTTA [XGTACX_site7471]	7.96 ± 0.13
ATATTGATACATCCAATACACACTACATATAATGAT [CACACA_site1874]	7.88 ± 0.59
AATATATATAAATATTGTACAAAAATATATATATAT [XGTACX_site2910]	9.04 ± 0.26
ATATATGATGTAAAAGCACACATATATATATATATA [CACACA_site9330]	9.57 ± 0.46
TCCCTCTTTTTATTCTCACACACGTTTATATATAAA [CACACA_site1644]	8.34 ± 0.58
TATATAAACATATAAACATGCAATATATATATGTTA [TGCATGCA_site765]	7.67 ± 0.56
AAAAAAATTAAATCAAGTACTCATTCTTAAATTATA [XGTACX_site1274]	7.32 ± 0.49
AAAAATATATAACAAAGTACATATATATTTAGTAAT [XGTACX_site8791]	7.43 ± 0.4
GGAAAAAAACTTATGAGTACACATAAATATAGCACA [XGTACX_site6686]	10.2 ± 0.54

Sequence	gcPBM binding intensity (ln)
TGTAGGTATTATTATACACACATAAAAAAAAAAAAA [CACACA_site3598]	8.04 ± 0.46
TAAAATATTATAAAATGTACAAAACATATAAATATA [XGTACX_site5315]	7.5 ± 0.4
AAATTAAAAAGACATTCACACATTTTCATCTTAACA [CACACA_site5221]	7.71 ± 0.64
AAACATATATATATTATATATATATATATATATATG [GTGCAC_negctrl_site182]	8.05 ± 0.35
TAACATATAATATTCACACACATATATATATTATAT [CACACA_site988]	7.83 ± 0.44
TATTATTATCTTACCACACACAATGTACGAAAAGAT [CACACA_site352]	8.19 ± 0.44
GGAAAAACCATTCGCACACACACATAATATATAATA [CACACA_site1424]	8.32 ± 0.43
ATTAATATATATGGATGTACTTATGTATGTATGCAT [XGTACX_site2263]	7.88 ± 0.6
ATAATAATATATATTACACACGCATCGTTCATTTAT [CACACA_site8752]	8.03 ± 0.65
CATGTATAATATAATACACACTATATAATATACACC [CACACA_site5267]	8.16 ± 0.22
ATGGCCATAATATAGACACACATATATAAATATATA [CACACA_site2230]	7.39 ± 0.53
CGATATGTTCAATATTGTACTATTTATAATAATATG [XGTACX_site3051]	7.67 ± 0.35
TATTGACAAAATAGCTGTACAAATTAAAAGAAATAA [XGTACX_site4415]	7.75 ± 0.54
TCTTACTAATATCGCACACACATATGTAGACGGGAT [CACACA_site87]	8.73 ± 0.22
TATTTATATGGACACACACACATATAAATAAATAAA [CACACA_site6346]	8.03 ± 0.55
TTTAATTGATAATGAAGACAATTATATGCATCCAAA [TGCATGCA_negctrl_site138]	7.9 ± 0.28
TTATTGTCTTCTCATATACACACTTTTATGACTATC [CACACA_site3142]	8.07 ± 0.74
CTTAAAAAAAAAAAATGTACACATAAAAAAAATACA [XGTACX_site6700]	8.145 ± 0.007
TAAATAAGGAAGGAAACACACATTAAAAAATAAATA [CACACA_site618]	7.83 ± 0.5
TTTTTAAATTATTTGAAAAAAAGAAAATTATAAACA [CACACA_negctrl_site1599]	7.49 ± 0.41
